Values of other authors in US8691290B2 (priority 2006, dated 2014).

Tested on: S. aureus
Conditions: in vivo

C/C(=C\C(=O)OCCCCCCCCC(=O)O)C[C@@H]1OC[C@H](C[C@@H]2O[C@H]2[C@@H](C)[C@H](C)O)[C@@H](O)[C@H]1O [mupirocin]
reduction of the rate of nosocomial S. aureus infection: 50%
